# According to the supplement of paper PMC3334620:
# Whole data set: some 33,000 sequences, median “E-score (-0.5 to 0.5)” near -0.04, cut for the highest 2% near 0.36. Some of the results follow.
# Target: T1, Hmlalpha2 (UniProt P0CY09)
# T1 sequence: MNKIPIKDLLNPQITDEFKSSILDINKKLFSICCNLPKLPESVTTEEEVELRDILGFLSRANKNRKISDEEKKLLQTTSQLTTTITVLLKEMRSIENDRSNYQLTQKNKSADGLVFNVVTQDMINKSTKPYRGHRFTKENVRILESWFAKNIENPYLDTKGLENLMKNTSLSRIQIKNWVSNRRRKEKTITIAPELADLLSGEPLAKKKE
# Assay: PBM E-score (8-mer binding enrichment) (E-score (-0.5 to 0.5)); higher = stronger / more preferred TF binding; most listed sequences are background and not binding sites
# Details: protein concentration: 200 nM; construct: GST-full length
# Procedure, shortened: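 PURExpress in vitro transcription/translation supplied GST-tagged yeast transcription factors, either full-length or DNA-binding domain. Applied at about 100-200 nM to universal all-10-mer Agilent arrays double-stranded by primer extension, the bound protein was detected with fluorescent anti-GST. E-scores, modified Wilcoxon-Mann-Whitney statistics, were given by the Universal PBM Analysis Suite to ungapped eight-base words pooled with their reverse complements after masliner normalisation.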
row,Sequence,PBM E-score
1,TATTCTGA,-0.0366
2,CTATGGAG,-0.287
3,AAGTTTAC,0.24
4,ACTCGAAC,0.107
5,GATGACCC,-0.141
6,AGACTGCG,-0.113
7,CCAGCTCC,-0.279
8,GAATTGCA,-0.101
9,ATACCTAC,0.147
10,ACAATCTG,0.0604
11,CCATACGA,-0.0712
12,TAGTAAAA,0.306
13,ATCAAGTA,0.217
14,AGTATGTA,0.394
15,CGACTGTA,-0.0423
16,ACACCGGC,0.0323
17,TATCCTAA,0.00317
18,AAGCAGTC,-0.227
19,CTTCACTA,0.0215
20,ACCGAGGA,-0.15
21,ACGCTAGA,-0.169
22,TAGTGCCA,0.0539

row,Sequence,PBM E-score
1,TAAAGATA,0.131
2,GGGTGCAA,-0.258
3,GGGAAAGA,-0.0985
4,GTCAATGA,-0.0957
5,AAAGACTT,0.0623
6,CTGAGATA,-0.0808
7,ACTGAGCT,-0.2
8,CAAGGCGC,-0.0601
9,AAAATGCG,0.068
10,AGTCGTCC,-0.239
11,ACTGCCAC,-0.173
12,AAGCATAC,0.0955
13,GGAGCATA,-0.0857
14,GTTTTCAA,0.338
15,CACCGTTC,-0.028
16,CCGCCACG,-0.186
17,ACTATGGG,-0.237
18,ACTTGGTC,-0.0588
19,ATCATGGC,-0.22
20,ACATGTCG,0.343
21,GGCGCTGA,-0.169
22,AATCGTTA,0.0866

row,Sequence,PBM E-score
1,ATATGCCC,-0.274
2,TCCACGGA,0.0831
3,ATGCCAGG,-0.176
4,ATAGGAAG,-0.221
5,AGGAACTA,0.00386
6,CGTGATCA,-0.111
7,CTATCATC,-0.0681
8,ACTGAGGG,-0.252
9,CGGTCCAA,-0.101
10,ATATCAAG,-0.00158
11,ATAAAGCA,-0.125
12,CATACAGG,0.0528
13,CCCCTGAG,-0.21
14,AGATGTAA,0.382
15,CAAGGAGA,-0.261
16,AAAACGAT,0.0445
17,AGCGACAT,0.262
18,CCGAACCG,-0.262
19,ATTATACA,0.34
20,CGGAGGAG,-0.234
21,AACGCCCT,-0.132
22,ACGCTCGG,-0.0545

row,Sequence,PBM E-score
1,CAACAGCG,-0.0507
2,CAAATCGC,-0.222
3,CTTAAGTC,-0.191
4,GAGGGACC,-0.307
5,GGGGCCAC,-0.357
6,GGATGCAC,-0.175
7,GCCGGCAC,-0.225
8,ATTCGAAA,-0.0685
9,AGTTGGTC,-0.059
10,ACATATAA,0.293
11,GTTAGCCA,-0.00447
12,AACTACGT,0.186
13,ATGACAGA,0.122
14,ATTACAGG,0.352
15,ACGTAACA,0.385
16,ATCTAAGA,0.0719
17,GGACCGAA,0.216
18,ACGGCCGT,-0.172
19,AAGGGAAC,-0.229
20,CATAACGA,-0.00732
